# Measurements as given in PubChem BioAssay AID1508642 (National Center for Advancing Translational Sciences (NCATS), 2021).
# The whole screen tested about 43,000 compounds, of which about 200 (0.47%) were called active. Not shown: some 12% with an inconclusive outcome. Calls come from the whole dose curve; as a rule, active = well fitted cell-killing curve with a large enough effect; inconclusive = small, poorly fitted or top-dose-only effect, or effect the other way; inactive = flat fitted curve, though single readings scatter. Some of the results follow.
# Test: Cell viability qHTS assay in S16 Pmp22-F2sN cells; note: nearly all actives have a fitted effect of over 65% in size
# Settings: S16 Pmp22-F2sN Schwann cells viability, CellTiter-Glo, 24 h; series mostly up to 57.5 µM; activity change, negative = cytotoxicity: at the top concentration
# How it was run: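 S16 Pmp22-F2sN Schwann cells (500-1,000/well) in phenol-red-free DMEM with 10% FBS received 23 nL compound by pin tool for 24 h at 37 °C. Viability was then read as CellTiter-Glo luminescence after 15 min at room temperature.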
# % is set by controls: 0 for no effect and ±100 for the full control effect.
row,SMILES,"activity change, negative = cytotoxicity"
1,CCOc1ccc(NC(=O)C(CC)n2c(=O)c(-c3ccccc3NC(C)=O)nc3ccccc32)cc1 (stereo not given),inactive: -8.27%
2,Cc1ccc(CNC(=O)Cn2cc(S(=O)(=O)Cc3ccccc3Cl)c3ccccc32)cc1,inactive: -1.18%
3,Nc1nnc(SCC(=O)Nc2ccc(Cl)cc2)s1,inactive: -13.9%
4,CCOc1ccc(NC(=O)C2CCN(C(=O)N3CC(C)Oc4ccc(Cl)cc43)CC2)cc1 (stereo not given),inactive: -11.7%
5,CCCn1c(CN2CCN(c3ccc(OC)cc3)CC2)nc2c1c(=O)[nH]c(=O)n2C,inactive: 2.1%
6,COc1cc(-c2cc3n(C)c(C)c(CCC(=O)O)c(=O)n3n2)cc(OC)c1OC,inactive: 10.4%
7,Cc1cc2oc(C(=O)Nc3ccc(S(=O)(=O)N(C)Cc4ccccc4)cc3)cc(=O)c2cc1C,inactive: 0.279%
8,CC(C)CC(=O)Nc1nnc(S(=O)(=O)N(CC(C)C)c2ccccc2)s1,inactive: -2.88%
9,Cc1ccc(CNC(=O)CCC(=O)N2CC3CCCN3c3ccccc32)cc1 (stereo not given),inactive: -1.53%
10,Cc1cc(C)cc(-n2c(C)nc3cc(C(=O)O)ccc32)c1,inactive: 9.42%
11,CCOc1ccc(C2=CC(c3cccc(Br)c3)n3c(nc4ccccc43)N2)cc1Cl (stereo not given),inactive: -19.8%
12,COc1ccc(-c2noc(-c3ccc(NCc4cccnc4)c([N+](=O)[O-])c3)n2)cc1OC,inactive: -10.6%
13,Cc1cc(C)c(S(=O)(=O)NCCc2cc3ccc(C)c(C)c3[nH]c2=O)c(C)c1,inactive: -1.72%
14,O=c1c2sc3ccccc3c2n(Cc2cccc(Cl)c2)c(=O)n1Cc1ccco1,inactive: 18.5%
15,Cc1cccc(OCc2nc(CC(=O)Nc3ccc(C)c(C)c3)cs2)c1,inactive: 4.55%
16,COc1ccc(OCc2ccc(-c3nc(C#N)c(N4CCCCC4)o3)o2)cc1,inactive: -18.9%
17,CCc1ccccc1NC(=O)Cn1c(=O)ccc2cc(S(=O)(=O)N3CCCC3)ccc21,inactive: 5.65%
18,CCCSc1ncc(Cl)c(C(=O)N(Cc2ccc(Cl)cc2)Cc2ccco2)n1,inactive: -16.6%
19,CCOC(=O)N1CCc2c(sc3c2c(=O)n(-c2ccc(CC)cc2)c(=O)n3C)C1,inactive: 5.04%
20,CCC1CCCCN1S(=O)(=O)c1cc2c3c(c1)CC(=O)N3CCC2 (stereo not given),inactive: -19.9%

row,SMILES,"activity change, negative = cytotoxicity"
1,CCOC(=O)c1c(C)[nH]c(C)c1S(=O)(=O)N1CCC(C(=O)NCc2cccc(OC)c2)CC1,inactive: 28.4%
2,COc1ccc(S(=O)(=O)N2Cc3ccccc3CC2C(=O)Nc2ccc(C)cc2C)cc1OC (stereo not given),inactive: -16.4%
3,CCC(C(=O)O)n1ccc2cc(S(=O)(=O)N3CCCCC3)ccc21 (stereo not given),inactive: -9.12%
4,COc1ccc(C(=O)c2c(N)c(C(=O)Nc3cccc(OC)c3)c3ccccn23)cc1,inactive: -27.3%
5,Cc1c(C(=O)N(C)C)sc2c1c(=O)n(-c1ccc(Cl)cc1)c(=O)n2CC(=O)C(C)(C)C,inactive: 3.57%
6,Cc1ccc(NC(=O)Cn2nc(N3CCN(c4ccccc4)CC3)ccc2=O)cc1F,inactive: 0.254%
7,COc1ccc(-n2c(=O)c3sc4ccccc4c3n(Cc3ccccc3C)c2=O)cc1OC,inactive: -10.8%
8,CCC1=C(c2ccc(C)cc2)S(=O)(=O)N=C1N1CCC(C(=O)NCc2ccc(N(C)C)cc2)CC1,inactive: -13.3%
9,CCN1C(=O)c2ccccc2Sc2ccc(NC(=O)Nc3cccc([N+](=O)[O-])c3C)cc21,inactive: -40.1%
10,Cc1ccc(N2CC(NC(=O)c3cccc(Cl)c3)CC2=O)cc1C (stereo not given),inactive: 9.73%
11,CCOC(=O)c1c(C)oc2ncnc(Nc3cc(C)cc(C)c3)c12,inactive: 6.66%
12,O=C(NCCc1csc2nc(-c3ccccc3F)nn12)C(=O)Nc1cc(F)ccc1F,inactive: -2.31%
13,CCc1ccccc1Nc1sc(C(=O)c2cccc(OC)c2)c(N)c1S(=O)(=O)c1ccccc1,inactive: 6.18%
14,CC1CCCN(C(=O)Cn2ncc3c([nH]c4ccccc43)c2=O)C1 (stereo not given),inactive: 26.7%
15,CCCCOc1ccc(C(=O)NCc2nnnn2-c2ccc(C)c(C)c2)cc1,inactive: 0.92%
16,COC(=O)c1c(NC(=O)/C(C#N)=C/c2ccccc2)sc2c1C(C(=O)OC)CC2 (stereo not given),inactive: 1.11%
17,Cc1cccc(N2CCN(C(=O)c3cnc(N4CCCC4)nc3C)CC2)c1C,inactive: -0.0488%
18,COc1ccc(C2c3c(n(C)c4ccccc34)C(=O)N2CC(=O)Nc2cccc(Cl)c2C)cc1 (stereo not given),inactive: -6.1%
19,COc1cc(NC(=O)c2nnn(CC(=O)Nc3cc(C)ccc3C)c2N)cc(OC)c1,inactive: -3.43%
20,COc1cc(NC(=O)c2cc(-c3cccc(OC)c3)n[nH]2)cc(OC)c1,inactive: -2.72%

row,SMILES,"activity change, negative = cytotoxicity"
1,CCOc1cc(C(=O)Nc2ccc3c(c2)n(C)c(=O)c(=O)n3C)cc(OCC)c1OCC,inactive: 6.86%
2,CCOc1ccc(-n2c(SCC(=O)Nc3ccc(CC)cc3)nc3c(oc4ccccc43)c2=O)cc1,inactive: 4.64%
3,CCOC(=O)CCc1c(C)nc2cc(-c3cc(OC)cc(OC)c3)[nH]n2c1=O,inactive: 7.19%
4,O=C(Nc1ccc(OC(F)(F)F)cc1)c1noc2c1CCCC2,inactive: 4.62%
5,CC1CCc2c(sc(NC(=O)CCCOc3ccccc3)c2C(N)=O)C1 (stereo not given),inactive: 6.32%
6,Cc1nc2ccc(S(=O)(=O)N(CC(=O)Nc3ccc(F)cc3)Cc3ccccc3)cc2s1,inactive: -8.49%
7,COC(=O)c1sc2cccc(F)c2c1S(=O)(=O)N1CCN(c2cccc(C)c2)C(C)C1 (stereo not given),inactive: 1.33%
8,COc1ccc(-c2cn3c(C)c(C(=O)Nc4cc(C)cc(C)c4)sc3n2)cc1,inactive: 0.627%
9,CCOC(=O)c1cnc2c(Cl)cc(Cl)cc2c1Nc1ccccc1OC,inactive: -0.993%
10,COC(=O)c1ccc(Cn2nnc3c(=O)[nH]c(C4CCCN(S(=O)(=O)c5ccccc5Cl)C4)nc32)cc1 (stereo not given),inactive: -0.846%
11,Cc1ccc(-c2nnc3c4ccccc4c(C)nn23)cc1NC(=O)c1ccccc1,inactive: 2.64%
12,CCc1cccc(NC(=O)CN(C)S(=O)(=O)c2ccc3[nH]c4c(c3c2)CCCC4)c1,inactive: -14.5%
13,CCc1ccccc1-n1c(N)c(C(=O)OC)c2nc3ccccc3nc21,inactive: -7.7%
14,CC(C)(C)OC(=O)N1CCC(c2c(C(=O)N3CCN(C(=O)c4ccco4)CC3)cnn2-c2ccc(F)cc2F)CC1,inactive: -17.1%
15,CCCOC(=O)c1c(NC(=O)c2cc3ccccc3c(=O)o2)sc2c1CCC(C)C2 (stereo not given),inactive: -0.435%
16,Cc1ccc(N2CC(NC(=O)c3ccc(Br)o3)CC2=O)cc1C (stereo not given),inactive: 3.68%
17,Cc1nn(CCC(=O)NCc2ccc(N(C)C)cc2)c(=O)c2nn(-c3ccccc3)c(C)c12,inactive: 4.62%
18,CC(NC(=O)C(=O)Nc1c2c(nn1-c1ccccc1)CSC2)c1ccccc1 (stereo not given),inactive: 0.987%
19,Cc1ccc2c(c1)c(=O)c(C(=O)c1ccncc1)cn2CC(=O)Nc1ccc(C(C)C)cc1,inactive: 17.6%
20,CCc1nnc(NC(=O)CSc2nccn2Cc2ccc(F)cc2)s1,inactive: 7.3%
